One block for each binder: values may come before it.
Target: T1, CCR6 (UniProt P51684 1-374, limits assumed)
T1 sequence (looked up): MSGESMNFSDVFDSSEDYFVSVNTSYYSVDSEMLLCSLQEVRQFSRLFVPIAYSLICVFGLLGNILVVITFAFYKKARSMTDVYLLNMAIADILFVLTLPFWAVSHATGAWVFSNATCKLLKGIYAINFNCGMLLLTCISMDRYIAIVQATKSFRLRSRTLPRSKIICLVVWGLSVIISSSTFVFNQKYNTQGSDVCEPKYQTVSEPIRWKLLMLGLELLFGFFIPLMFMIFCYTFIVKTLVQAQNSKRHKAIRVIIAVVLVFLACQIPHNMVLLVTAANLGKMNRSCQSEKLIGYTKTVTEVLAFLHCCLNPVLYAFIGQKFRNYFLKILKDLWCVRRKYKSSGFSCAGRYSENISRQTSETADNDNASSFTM
Experiment: cell-based or functional assay

- 3H-IP3 accumulation in CCR6+ COS-7 cells, logEC50: -9.37
- CCR6+ Jurkat cell calcium flux EC50: 76 nM
- CCR6+ Jurkat cell migration EC50: ~15 nM
- beta-arrestin-2 recruitment to CCR6 in U2OS cells, logEC50: -8.95
- beta-arrestin-2 recruitment to CCR6 in transfected U2OS cells, EC50: 1.1 nM
- intracellular calcium release in CCR6+ Jurkat cells, EC50: 75 nM
- intracellular calcium release in CCR6+ Jurkat cells, logEC50: -7.12
B1: CCL20 WT (ligand)
chain: not shown
notes: also called wild-type CCL20; wild type CCL20

- 3H-IP3 accumulation in CCR6+ COS-7 cells, logEC50: -7.38
- CCR6+ Jurkat cell calcium flux EC50: 700 nM
- beta-arrestin-2 recruitment to CCR6 in U2OS cells, logEC50: -7.07
- beta-arrestin-2 recruitment to CCR6 in transfected U2OS cells, EC50: 86.2 nM
- intracellular calcium release in CCR6+ Jurkat cells, EC50: 715 nM
- intracellular calcium release in CCR6+ Jurkat cells, logEC50: -6.14
B2: CCL20 S64C locked dimer (ligand)
chain: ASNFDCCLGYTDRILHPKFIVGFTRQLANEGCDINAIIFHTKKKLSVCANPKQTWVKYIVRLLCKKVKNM
modifications: intermolecular disulfide bond between Cys 64 of the two monomers
notes: also called CCL20LD; CCL20 locked dimer

Source: patent publication US20200360479A1 (MEDICAL COLLEGE OF WISCONSIN, published 2020)
